Reference: patent publication US12459876B2, “One-step kit-based synthesis of 2-deoxy-2-[18F]fluoro-D-sorbitol” (The Johns Hopkins University, priority 2020, dated 2025)

System: K. pneumoniae
Details: hamster, in vivo; infected hamsters; 120 minutes post-tracer injection

Compound: OC[C@@H](O)[C@@H](O)[C@H](O)[C@@H]([18F])CO [^18F-FDS, 2-deoxy-2-[^18F]fluoro-D-sorbitol]
- PET signal in other organs (biodistribution): signal also can be seen in the kidneys, gallbladder, and intestines
